# The campaign covered roughly 52,000 compounds. About 4,300 (8.3%) were called active. Rule as the data show it: active = survival mostly below about 52% (no sharp cut-off); inactive = mostly above about 56%. The list shows a part of the results.
# System: DeltatarO mutant
# Test: S. aureus survival, RN4220 and DeltatarO strains – OD600, teichoic acid synthesis inhibitors, primary screen (AID 463173)
# Conditions: S. aureus RN4220 wild type/DeltatarO growth, OD600, 18 h, hits give low values, screened at 18.75 µg/mL (by protocol)
row,SMILES,survival
1,CCOC(=O)N1CCN(C(=O)CN(c2ccc(C)cc2C)S(=O)(=O)c2ccccc2)CC1,inactive: 66%
2,O=C(CN1C(=O)C2(SCC(=O)N2c2cccc(Cl)c2)c2ccccc21)NC1CCCCC1 (stereo not drawn),inactive: 86%
3,CCN1CCN(C(=O)c2ccc3c(c2)N(Cc2cc(C)ccc2C)C(=O)c2ccccc2S3=O)CC1 (stereo not drawn),inactive: 117%
4,COC(=O)c1cc(NC(=O)CN(c2ccccc2)S(=O)(=O)N(C)C)ccc1Cl,inactive: 83%
5,NS(=O)(=O)c1ccc(CCNc2nc3c(-c4cccc(F)c4)nnn3c3ccc(Cl)cc23)cc1,inactive: 65%
6,CCOc1ccccc1NC(=O)Cn1nnc2sc3c(c2c1=O)CCC(C(C)(C)C)C3 (stereo not drawn),inactive: 106%
7,Cc1oc(-c2ccc(Cl)cc2)nc1Cn1c(=O)cc(-c2ccccc2)c2c(C)nn(C)c21,inactive: 88%
8,Cc1ccc(-n2ncc3c(NCCC4=CCCCC4)ncnc32)cc1C,inactive: 119%
9,c1ccc(NCc2cccnc2)cc1,inactive: 89%
10,O=C(CNS(=O)(=O)c1ccc(Br)s1)N1CCN(c2ccccc2F)CC1,active: 36%
11,CCOCCN1CCN(c2c3c(nc4cc(-c5cccc(C)c5)nn24)CCC3)CC1,inactive: 74%
12,Cc1nn(CC(=O)N2CCN(c3ccccc3)CC2)c(=O)c2cccn12,inactive: 92%
13,CCc1nn(CC(=O)NCc2cccc(OC)c2)c(=O)c2cc3cc(F)ccc3n12,inactive: 76%
14,Cc1ccc(-c2nc3c(cnn3-c3ccccc3)c(=O)n2-c2ccc(Cl)cc2)cc1,active: 44%
15,O=C(COCc1cc(-c2ccco2)on1)Nc1ccc(OC(F)(F)F)cc1,inactive: 92%
16,COc1cccc(OC)c1C(=O)Nc1ccc2c(c1)CCCN2S(=O)(=O)c1ccc(C)cc1,inactive: 67%
17,O=C(Cn1cc(S(=O)(=O)Cc2ccc(F)cc2)c2ccccc21)NCc1ccccc1,inactive: 78%
18,CCOc1ccccc1NC(=O)CSc1cc(=O)n(CC)c2ccccc12,inactive: 72%
19,CCOc1ccc(-c2cc(C(F)(F)F)c(C#N)c(SCC(=O)Nc3ccccc3)n2)cc1,inactive: 61%
20,CC(=O)c1cc(-c2ccccc2)n(CCC(=O)Nc2cc(C)cc(C)c2)c1C,inactive: 94%
21,OC(c1ccc(Br)cc1)C12CN3CN(CN(C3)C1)C2 (stereo not drawn),inactive: 91%
22,O=C(O)CCC(=O)Nc1cccc(C(=O)N2CCCCC2)c1,inactive: 104%

row,SMILES,survival
1,COc1ccc(-c2onc(C)c2C)cc1S(=O)(=O)N1CCC(C)CC1,inactive: 70%
2,CCc1ccc(NC(=O)c2ccc(CN3C(=O)C(C)=C(c4ccc(C)cc4)S3(=O)=O)cc2)cc1,inactive: 75%
3,COc1cccc(-c2nc(C(N)=O)c3c(n2)n(-c2ccc4c(c2)OCO4)c(=O)n3C)c1OC,inactive: 80%
4,Cn1c(C(=O)NCc2cccc(F)c2)cc2cc(S(=O)(=O)N3CCCCC3)ccc21,inactive: 81%
5,CSc1nc2c([nH]c3ccccc32)c(=O)n1-c1ccc(F)cc1,inactive: 89%
6,CCC(C)NC(=O)c1sc2nc(C)c(C(=O)Nc3ccc(Cl)cc3)c(-c3ccc(Br)cc3)c2c1N (stereo not drawn),inactive: 70%
7,COc1ccc2cc(CNc3ccc(OC)c(OC)c3)c(=O)n(CC(=O)Nc3ccc(C)cc3)c2c1,inactive: 74%
8,Cc1cccc(NC(=O)CSc2nc(C)c(Cc3ccccc3)c(=O)[nH]2)c1,active: 18%
9,CSc1nnc(-c2cc3ccccc3cc2O)n1C,inactive: 90%
10,CCCNC(=O)CN1C(=O)c2cccnc2Sc2ccccc21,inactive: 61%
11,Cc1ccc(C)c(N2CCN(C(=O)c3c4c(nc5ccccc35)C(=O)N(C3CCCCC3)C4)CC2)c1,inactive: 101%
12,COc1ccc(-c2nc(CNS(=O)(=O)c3ccc(F)cc3)cs2)cc1,inactive: 118%
13,CCOc1ccc2[nH]c(=O)c(CN(CCc3ccccc3)C(=O)N(C)C)cc2c1,inactive: 86%
14,COc1ccccc1CNC(=O)C(=O)NCC(c1ccc2c(c1)OCO2)N1CCOCC1 (stereo not drawn),inactive: 102%
15,CCc1ccc(CN2CCc3nc(Nc4ccc5c(c4)OCCO5)ncc3C2)cc1,inactive: 97%
16,COc1cccc(NC(=O)CSc2nncn2N)c1,inactive: 79%
17,CC(=O)c1cccc(NC(=O)C2=CC(c3ccco3)=NS(=O)(=O)N2C)c1,inactive: 90%
18,COc1ccc(Nc2nnc(-c3ccc(C)c(S(N)(=O)=O)c3)c3ccccc23)cc1,inactive: 70%
19,CC(Sc1ccccc1)C(=O)N/N=C/c1cccnc1 (stereo not drawn),inactive: 106%
20,CCc1ccc2nc(N3CCN(C(=O)c4ccco4)CC3)sc2c1,inactive: 86%
21,COc1ccc(CCNc2oc(COc3ccc(Cl)cc3)nc2C#N)cc1OC,inactive: 74%
22,Cc1ccc(NC(=O)Cn2c(=O)oc3cc(S(=O)(=O)N4CCCC4)ccc32)cc1F,inactive: 113%

row,SMILES,survival
1,Cc1nc2ccc(S(=O)(=O)CCC(=O)Nc3ccccc3C)cc2s1,inactive: 50%
2,CCOC(=O)c1ccc(NC(=O)C2CCCN(c3ncnc4onc(C)c34)C2)cc1 (stereo not drawn),inactive: 67%
3,COc1ccccc1N1CCN(CCCNC(=O)Cn2ncc3c([nH]c4ccccc43)c2=O)CC1,inactive: 55%
4,O=C(CC1NCCNC1=O)Nc1cccc(F)c1 (stereo not drawn),inactive: 79%
5,Cc1ccc2ncc3c(-c4ccccc4)nn(CC(=O)NC4CCCCC4)c3c2c1,inactive: 115%
6,COc1ccc(NC(=O)CSC2=Nc3ccccc3C3=NC(CCC(=O)NCc4ccco4)C(=O)N23)cc1 (stereo not drawn),inactive: 67%
7,CC1(C)Cc2nc3sc4c(N5CCOCC5)ncnc4c3cc2CO1,inactive: 104%
8,Clc1ccc(CSc2nc(NCCc3ccccc3)c3ccccc3n2)cc1,inactive: 81%
9,Cc1cc(NC(=O)C2CCCN(S(=O)(=O)c3cccc4nonc34)C2)ccc1Br (stereo not drawn),inactive: 87%
10,COc1ccc(OC)c(CNCc2c(C(=O)O)n(Cc3ccccc3)c3cc(OC)ccc23)c1,inactive: 77%
11,CCC(=O)N1CCc2cc(S(=O)(=O)NC(CC(C)C)C(=O)Nc3ccc(CC)cc3)ccc21 (stereo not drawn),active: 60%
12,O=C(CN1N=C(c2ccc(Cl)cc2)CCC1=O)NCc1ccc(F)cc1,inactive: 72%
13,CCc1cccc(C)c1NC(=O)c1cnn(-c2ccc(F)cc2)c1-n1cccc1,inactive: 49%
14,CSc1nn(Cc2cccc(F)c2)c(N(C(C)=O)C(C)=O)c1S(=O)(=O)c1ccccc1,inactive: 84%
15,O=C(CN1CCCCC1)N1CCCc2ccccc21,inactive: 110%
16,Cc1cccc2sc(N3CCN(C(=O)c4ccco4)CC3)nc12,inactive: 96%
17,CCOc1ccc(S(=O)(=O)Nc2ccc(-c3ccc(N4CCCC4)nn3)cc2)cc1,inactive: 96%
18,Cc1cccc(S(=O)(=O)c2cn(Cc3ccccc3)c3cc(N4CCCC(C)C4)c(F)cc3c2=O)c1 (stereo not drawn),inactive: 80%
19,Cc1ccc(CNC(=O)C2CCN(S(=O)(=O)c3ccc4c(c3)oc(=O)n4C)CC2)cc1,inactive: 107%
20,CCc1ccc(-n2nc(C)c3c(C)cc(=O)n(CC(=O)Nc4ccc(OC)c(OC)c4)c32)cc1,inactive: 84%
21,CCOC(=O)c1c(C)[nH]c(C)c1S(=O)(=O)N1CCCC(C(=O)N2CCN(c3cc(C)ccc3C)CC2)C1 (stereo not drawn),inactive: 84%
22,Cc1ccc(-c2cc(C(F)(F)F)n3nc(C(=O)Nc4ccc(C#N)cc4)cc3n2)cc1,inactive: 81%

row,SMILES,survival
1,CCOc1ccccc1CNC(=O)CCCN1C(=O)CCn2nc(-c3cccn3C)cc21,inactive: 84%
2,CCN1C(=O)N(C)C2C1N(C)C(=O)N2CC (stereo not drawn),inactive: 72%
3,Cc1cc(C)c(NC(=O)CCn2nnc3ccccc32)c(C)c1,inactive: 101%
4,COc1ccc(C(=O)N2CCCCC2CCN2CCCCC2)cc1 (stereo not drawn),inactive: 82%
5,COc1ccc(Cl)cc1NC(=O)[C@H]1O[C@@H]2OC(C)(C)O[C@@H]2[C@H]2OC(C)(C)O[C@H]21,inactive: 83%
6,O=S(=O)(c1cccs1)N1CCN(c2ccc(Cl)cc2)CC1,inactive: 72%
7,CCOc1ccc(CNC(=O)Cn2ncc3c(=O)oc4ccc(C)cc4c32)cc1,inactive: 78%
8,Cc1ccc(C)c(CN2C(=O)c3ccccc3S(=O)(=O)c3ccc(C(=O)N4CCOCC4)cc32)c1,inactive: 113%
9,COc1ccc(Cl)cc1N(C)C(=O)Cn1cnc2sc(C)c(S(=O)(=O)N3CCN(c4ncccn4)CC3)c2c1=O,inactive: 61%
10,CCC(CC)C(=O)Nc1ccccc1C(=O)OCc1cc(=O)n2nc(C3CCCCC3)sc2n1,inactive: 92%
11,CC(C)NC(=O)CSc1nnc(Cc2ccccc2)n1Cc1ccco1,active: 40%
12,COC(=O)c1ccc(NC(=O)N2CCN(c3nnc(C)c4c(C)n(-c5ccccc5)nc34)CC2)cc1,inactive: 65%
13,O=C(Cn1c(=O)c(C(F)(F)F)nc2ccccc21)Nc1ccc(Br)cc1F,inactive: 102%
14,COc1ccc(S(=O)(=O)N2CCN(c3ccccc3)CC2)cc1-c1noc(C)n1,inactive: 57%
15,Cc1ccccc1Cn1cc(CCC(=O)NCc2cccc(Br)c2)c2ccccc21,inactive: 115%
16,O=C(c1cnc2c(c1)COc1ccccc1-2)c1ccccc1O,active: 3%
17,Cn1nc(-c2ccccc2F)c2cc(C(=O)Nc3cc(F)ccc3F)sc21,inactive: 84%
18,CC(C)(C)NC(=O)CSc1nc(-c2ccc(F)cc2)cc(C(F)(F)F)n1,inactive: 72%
19,COc1ccc(S(=O)(=O)NCC(c2ccco2)N2CCN(c3ccc(F)cc3)CC2)cc1 (stereo not drawn),inactive: 84%
20,CC(C)c1cnc2c(c1SCC(=O)c1ccccc1)c(=O)n(C)c(=O)n2C,inactive: 95%
21,O=C(NCc1ccccc1)c1ccc2c(c1)N(Cc1ccccc1)C(=O)c1ccccc1S2(=O)=O,inactive: 76%
22,Cc1cccc(C(=O)Nc2ccc(C(=O)OCc3cc(=O)n4c(C)csc4n3)cc2)c1,inactive: 128%

# Source: PubChem BioAssay AID463173 (ICCB-Longwood Screening Facility, Harvard Medical School, 2010)
